Hit rate of the full screen: of about 310,000 compounds, about 14,000 (4.5%) showed an effect of 50% or more. Effects have a minus sign here. Some of the results follow.

Results on 90 molecules are retold here after publication PMC4336329 (PLoS ONE, 2015).
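Also: peak tail current of the secondary pulse compared with the same well before compound.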

In this experiment the target is human ether-à-go-go-related gene (hERG) potassium channel (human, UniProt Q12809). The experiment in a line: primary screen, population patch clamp on CHO cells stably expressing hERG.
human ether-à-go-go-related gene (hERG) potassium channel, sequence (Q12809 whole entry, looked up): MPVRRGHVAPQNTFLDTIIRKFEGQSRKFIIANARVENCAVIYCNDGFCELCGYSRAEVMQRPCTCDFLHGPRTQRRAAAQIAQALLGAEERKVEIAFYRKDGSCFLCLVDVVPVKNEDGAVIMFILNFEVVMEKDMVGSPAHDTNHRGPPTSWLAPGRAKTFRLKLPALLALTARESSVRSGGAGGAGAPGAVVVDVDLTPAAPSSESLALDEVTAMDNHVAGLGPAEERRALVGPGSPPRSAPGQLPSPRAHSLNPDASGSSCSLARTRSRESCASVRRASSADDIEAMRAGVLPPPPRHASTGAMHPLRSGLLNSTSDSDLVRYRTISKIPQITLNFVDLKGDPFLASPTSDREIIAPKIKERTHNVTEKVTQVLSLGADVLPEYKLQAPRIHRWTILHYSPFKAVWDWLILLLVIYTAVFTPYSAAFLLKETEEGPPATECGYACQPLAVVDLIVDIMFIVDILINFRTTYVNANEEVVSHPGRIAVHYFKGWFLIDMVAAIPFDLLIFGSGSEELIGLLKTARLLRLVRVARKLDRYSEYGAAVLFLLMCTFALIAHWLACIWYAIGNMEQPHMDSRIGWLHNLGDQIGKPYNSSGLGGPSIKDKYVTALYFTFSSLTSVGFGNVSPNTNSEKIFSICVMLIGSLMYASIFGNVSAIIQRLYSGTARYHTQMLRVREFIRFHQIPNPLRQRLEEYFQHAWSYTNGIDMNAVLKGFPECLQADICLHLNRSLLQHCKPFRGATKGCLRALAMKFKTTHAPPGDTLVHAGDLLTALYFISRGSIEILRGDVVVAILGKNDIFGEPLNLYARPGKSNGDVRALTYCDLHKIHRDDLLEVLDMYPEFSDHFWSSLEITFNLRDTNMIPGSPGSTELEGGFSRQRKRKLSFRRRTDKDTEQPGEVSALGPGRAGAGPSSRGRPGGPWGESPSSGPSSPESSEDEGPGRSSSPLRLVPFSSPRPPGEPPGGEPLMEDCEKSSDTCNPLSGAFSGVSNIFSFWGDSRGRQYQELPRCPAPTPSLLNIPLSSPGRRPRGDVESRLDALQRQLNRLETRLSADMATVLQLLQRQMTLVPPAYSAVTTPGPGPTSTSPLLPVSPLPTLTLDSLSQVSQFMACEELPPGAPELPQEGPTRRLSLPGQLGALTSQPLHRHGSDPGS
Regarding `O=C1NC2=C(CCc3ccccc32)C(c2ccccc2)N1` (stereo not drawn), the “hERG current change (%, negative = inhibition) at 10uM” value is given as -20.8%.

For `CC(=O)c1ccc(N2CCN(C(C)C(=O)NC3CCCc4ccccc43)CC2)cc1` (stereo not drawn), the “hERG current change (%, negative = inhibition) at 10uM” value is reported as -44.2%.

Take `CNC(=O)Nc1ccc(Cl)cc1`: the “hERG current change (%, negative = inhibition) at 10uM” value is recorded as 7.56%.

For the molecule `Nc1nc(CN2CCCCCC2)nc(Nc2ccccc2)n1`, the “hERG current change (%, negative = inhibition) at 10uM” value is -61.4%. Regarding `Cc1ccccc1OCC(=O)NCCN1CCCC1.Cl`, the “hERG current change (%, negative = inhibition) at 10uM” value is on record as -3.02%.

Turning to `Cc1cc(NC(=O)CSc2nnc(C)o2)no1`, the “hERG current change (%, negative = inhibition) at 10uM” value came to 11.8%. For the molecule `Cc1cccc(C(C)(C)C)c1OCCn1ccnc1`, the “hERG current change (%, negative = inhibition) at 10uM” value was -11.1%. `O=C(/C=C/c1ccco1)Oc1cccc2cccnc12`: the “hERG current change (%, negative = inhibition) at 10uM” value amounted to 9.02%. With `C=CCn1c(O)c(C(C)=NC2CC2)c(=O)[nH]c1=O`, the “hERG current change (%, negative = inhibition) at 10uM” value came to 9.27%. Turning to `CC(=O)c1cc2cc(O)ccc2o1`, the “hERG current change (%, negative = inhibition) at 10uM” value amounted to 5.74%. Next, `Nc1c(N(Cc2ccco2)C(=O)c2cccc(Cl)c2)c(=O)[nH]c(=O)n1Cc1ccccc1`: 5.99%. Consider `COc1ccc(Cc2nnc(NS(=O)(=O)c3ccc([N+](=O)[O-])cc3)s2)cc1`, for which the “hERG current change (%, negative = inhibition) at 10uM” value is -0.0408%. With `COC(=O)c1cccc(NC(=O)Cc2ccccc2[N+](=O)[O-])c1C`, the “hERG current change (%, negative = inhibition) at 10uM” value is given as -5.62%. Regarding `COc1ccc(C2NC(=O)C(C#N)=C(S)N2c2ccc(C)cc2)cc1OC` (stereo not drawn), the “hERG current change (%, negative = inhibition) at 10uM” value was 18.2%. Then `O=C(Nc1ncccn1)C1CCCN1S(=O)(=O)c1ccc(Cl)c(Cl)c1` (stereo not drawn), with -0.452%. Regarding `O=C(Cc1ccccc1)N1CCN(Cc2ccc([N+](=O)[O-])cc2)CC1`, the “hERG current change (%, negative = inhibition) at 10uM” value was -63.4%. As to `CC(C(=O)OCC(=O)c1ccc([N+](=O)[O-])cc1)N1C(=O)C2C3C=CC(C3)C2C1=O` (stereo not drawn), the “hERG current change (%, negative = inhibition) at 10uM” value is recorded as -43%.

Consider `CC(=O)Nc1nc(C=C(Cl)Cl)cs1`, for which the “hERG current change (%, negative = inhibition) at 10uM” value is -7.74%. Then `CN1CCN(S(=O)(=O)c2ccc(N3CCN(C(=O)c4ccccc4)CC3)nc2)CC1`, with 36.5%; and `COc1ccc(CCNS(=O)(=O)c2ccc([N+](=O)[O-])cc2)cc1OC`, with -2.39%; and `CCC(C(=O)NCc1ccc(F)cc1)N(CCc1ccccc1)C(=O)c1snc(C(N)=O)c1N` (stereo not drawn), with -40.7%.

As to `O=C(O)/C=C/C(=O)Nc1ccc(S(=O)(=O)Nc2nccs2)cc1`, the “hERG current change (%, negative = inhibition) at 10uM” value is 7.54%. `Cc1ccc(C)c(OCCCCCn2ccnc2)c1`: the “hERG current change (%, negative = inhibition) at 10uM” value was -36.4%.

For `CCOC(=O)c1c(NC(=O)c2cccs2)sc2c1CCCC2`, the “hERG current change (%, negative = inhibition) at 10uM” value was 15.6%. Next, `Cn1c2ccccc2c2c(C(=O)NCC3CCCO3)cn(C3CCCC3)c(=O)c21` (stereo not drawn): -0.664%. With `CCOC(=O)N1CCC(NC(=O)c2cc(S(=O)(=O)NCCc3ccccc3)ccc2F)CC1`, the “hERG current change (%, negative = inhibition) at 10uM” value is -36%. For `O=C(NN1CCOCC1)c1sc2cccc(F)c2c1Cl`, the “hERG current change (%, negative = inhibition) at 10uM” value came out at 9.93%.

In the case of `CCC(=O)c1ccc(OCC(=O)OCC(=O)NC2CCCCCCC2)cc1`, the “hERG current change (%, negative = inhibition) at 10uM” value came out at 23.9%.

`CC(=O)c1cccc(NC(=O)COC(=O)c2ccccn2)c1`: the “hERG current change (%, negative = inhibition) at 10uM” value worked out at 5.33%. Next, `COc1ccc(CN2CCN(c3ccccn3)CC2)cc1OCc1ccccc1`: -67.9%; `COCCNC(=O)CN(C(=O)CCC(=O)Nc1ccccn1)c1ccc(C)cc1C`: -0.279%.

In the case of `OC1(c2cccnc2)CC2CCC(C1)N2Cc1nnnn1Cc1ccccc1` (stereo not drawn), the “hERG current change (%, negative = inhibition) at 10uM” value is recorded as -8.96%. Next, `CC1CC(C)CN(C(=O)COC(=O)c2ccc3c(c2)C(=O)N(Cc2ccco2)C3=O)C1` (stereo not drawn): -68.7%. Consider `COC(=O)C(C)(C)ONC(=O)Nc1ccc(C)cc1`, for which the “hERG current change (%, negative = inhibition) at 10uM” value was -13.8%. Next, `CCC(=O)c1ccc(OCC(=O)O)c(OC)c1`: 9.77%; `CC1=C(CCN2CCN(C(C)C)C(CCO)C2)C(C)(C)CCC1` (stereo not drawn): -17.3%; `CN(CC(=O)Nc1ccc(F)cc1)C(=O)COC(=O)C1CCN(c2ccc(C(F)(F)F)cn2)CC1`: -65.5%. Then `COCCNc1nc2ccccc2nc1NS(=O)(=O)c1ccc(C)cc1C`, with -0.713%. Next, `CCCc1cc(C(=O)Nc2ccc(C)cc2)no1`: -13.8%; `COc1ccc(C2CC(=O)NC(=O)C2)cc1`: 18.3%. For `CCN=C1SC(C(=O)NCCc2ccccc2)CC(=O)N1CC` (stereo not drawn), the “hERG current change (%, negative = inhibition) at 10uM” value is recorded as 6.74%.

Consider `CCOC(=O)c1cccc(NC(=O)Nc2cc(OC)ccc2OC)c1`, for which the “hERG current change (%, negative = inhibition) at 10uM” value is -14.3%. Next, `O=C1CC2(CCCCC2)Oc2ccccc21`: 14.4%; `O=C(NC1CCCC1)C1CCN(C(=O)c2cc(Cl)ccc2Cl)CC1`: -6.2%. `Clc1ccc(-c2csc(Nc3cccnc3)n2)cc1`: the “hERG current change (%, negative = inhibition) at 10uM” value is 13.5%. As to `COc1ccc(OC)c(C2C3=C(CCCC3=O)Nc3nnnn32)c1` (stereo not drawn), the “hERG current change (%, negative = inhibition) at 10uM” value was found to be 2.21%.

Turning to `COC(=O)c1ccc(C2=NOC(C)(c3nnc(-c4cccc(Cl)c4)o3)C2)cc1` (stereo not drawn), the “hERG current change (%, negative = inhibition) at 10uM” value was found to be 10.9%.

Turning to `O=C(c1ccc2c(c1)N(Cc1cccc(Cl)c1)C(=O)c1ccccc1S2(=O)=O)N1CCN(c2ccccn2)CC1`, the “hERG current change (%, negative = inhibition) at 10uM” value is 7.1%. Take `CCn1c(O)c(C=NCCN2CCOCC2)c(=O)n(CC)c1=S`: the “hERG current change (%, negative = inhibition) at 10uM” value is recorded as -3.21%. Take `COc1ccc(C2NC(=O)N(C)C3=C2C(=O)CC(C)(C)C3)cc1OC` (stereo not drawn): the “hERG current change (%, negative = inhibition) at 10uM” value worked out at 15.1%. Then `COC(=O)c1ccc(NC(=O)CSc2nccn2CCc2ccccc2)cc1`, with 8.75%; and `CCc1cc(C(=O)N/N=C/c2c(C)[nH]c3ccccc23)cs1`, with -6.65%. In the case of `CCN(CC)c1ccc(NC(=O)c2ccc(Br)o2)cc1`, the “hERG current change (%, negative = inhibition) at 10uM” value is on record as -24.3%. Then `CN1CCN(S(=O)(=O)c2ccc(Cl)cc2)CC1`, with 9.96%.

Regarding `COc1ccc(NC(=S)N(Cc2ccc(Cl)cc2)Cc2ccc(C(=O)O)cc2)cc1Cl`, the “hERG current change (%, negative = inhibition) at 10uM” value is reported as -3.51%. Next, `Cc1cc(=S)[nH]c2ccccc12`: 16.5%; `CC(C)Sc1nnc([C@H](Cc2c[nH]c3ccccc23)NC(=O)OC(C)(C)C)o1`: -22.4%. Then `CN(C)C(CNC(=O)CCOc1ccccc1)c1ccco1` (stereo not drawn), with 7.28%; and `CCOc1ccc(S(=O)(=O)NCCC(=O)OCC(=O)Nc2cc(C)on2)cc1`, with -44.1%; and `Cc1ccccc1NC(=O)Cn1nnc(S(=O)(=O)c2ccc(C(C)(C)C)cc2)c1N`, with 4.35%. `Cc1ccc(NC(=O)CCCN2C(=O)NC(C)(C)C2=O)cc1`: the “hERG current change (%, negative = inhibition) at 10uM” value is listed as 12.5%.

For `CSCCC(NC(=O)c1ccc(Cl)cc1Cl)C(=O)NCc1ccncc1` (stereo not drawn), the “hERG current change (%, negative = inhibition) at 10uM” value is reported as -25.3%.

As to `COc1ccc(S(=O)(=O)N(C)c2ccc(C(=O)N3CCCCC3)cc2)cc1`, the “hERG current change (%, negative = inhibition) at 10uM” value was -16.3%.

For the molecule `Cc1cc(N2Cc3ccccc3C2)ccc1C=O`, the “hERG current change (%, negative = inhibition) at 10uM” value worked out at 4.57%. Then `CCOc1cc(/C=N/NC(=O)c2ccc(N(C)S(=O)(=O)c3ccccc3)cc2)ccc1OC`, with -33%. `Nc1ccc(/C=C/c2ccc3ncccc3c2)cc1`: the “hERG current change (%, negative = inhibition) at 10uM” value was 27.5%. Turning to `CCCOc1ccc(/C(O)=C2/C(=O)C(=O)N(CCCOC)C2c2cccnc2)cc1` (stereo not drawn), the “hERG current change (%, negative = inhibition) at 10uM” value is listed as -5.91%. Consider `CSc1nc(O)c(/C=C2\C=Nc3ccccc32)[nH]1`, for which the “hERG current change (%, negative = inhibition) at 10uM” value is 9.12%.

With `COCCCN=Cc1c(-c2ccccc2)[nH]n(-c2nc3ccccc3s2)c1=O`, the “hERG current change (%, negative = inhibition) at 10uM” value is listed as -75.1%.

Take `O=C(Nc1ccccc1N1CCCC1)c1ccc([N+](=O)[O-])o1`: the “hERG current change (%, negative = inhibition) at 10uM” value turned out to be 5.51%. Next, `COc1ccc(OCCN2CCN(C(=O)c3ccc(OC)cc3)CC2)cc1`: -87.2%; `CCCC(=O)Nc1cccc2c1CCCC2`: 10.2%. Consider `Cc1ccc(S(=O)(=O)N(CC(=O)NCCSc2ccccn2)c2ccc(C)c(C)c2)cc1`, for which the “hERG current change (%, negative = inhibition) at 10uM” value is -22.4%.

For the molecule `CC(=O)c1cccc(NS(=O)(=O)c2ccc(-c3cnc(C4CC4)o3)cc2)c1`, the “hERG current change (%, negative = inhibition) at 10uM” value was -0.86%. Next, `COc1ccccc1C(=O)NC(=S)Nc1ccc(NC(=O)c2cccs2)cc1`: -4.54%; `CN(C)CCSC1c2ccccc2CSc2ccccc21.Cl` (stereo not drawn): -14.2%. Then `Cc1ccc2ncnc(NCCCCCC(=O)O)c2c1.Cl`, with 17.4%. Then `COc1ccc2[nH]c(C(=O)N(C)Cc3ccccc3)c(C)c2c1`, with 2.51%; and `O=C(C(=O)N1CCOCC1)c1cn(CCOc2ccccc2)c2ccccc12`, with -18.4%. As to `O=C(NCc1ccccn1)c1ccc2nc(-c3ccco3)c(-c3ccco3)nc2c1`, the “hERG current change (%, negative = inhibition) at 10uM” value was -16.3%. `Cc1cc(C)c2cc(CN(CCCN(C)C)C(=S)NCc3ccccc3)c(=O)[nH]c2c1`: the “hERG current change (%, negative = inhibition) at 10uM” value was -45.4%. As for `Cc1ccsc1-c1cc(C(=O)O)c2c(ccc3ccccc32)n1`, the “hERG current change (%, negative = inhibition) at 10uM” value turned out to be 12%. As for `COc1cccc(-n2nnc3c(=O)n(Cc4ccccc4F)cnc32)c1`, the “hERG current change (%, negative = inhibition) at 10uM” value was 4.44%.

As to `CCC(=S)/C=C1\Sc2ccc3ccccc3c2N1CCCS(=O)(=O)[O-].[Na+]`, the “hERG current change (%, negative = inhibition) at 10uM” value is 14.6%. Next, `CC1(C)CCCC2=C1CC1C(=O)N(Cc3cccnc3)C(=O)C1C2` (stereo not drawn): -5.71%; `Cc1cc(=O)n2nc(N3CCC(C(=O)NCc4ccco4)CC3)sc2n1`: 17.9%. Next, `COc1cccc2sc(NNC(=O)COc3ccccc3)nc12`: 14.7%. Take `Cc1oc2ccc(OC(=O)COc3c(F)c(F)c(F)c(F)c3F)cc2c1C(=O)OC(C)C`: the “hERG current change (%, negative = inhibition) at 10uM” value came to 14.5%. Then `Cc1cccc(-n2c(-c3ccco3)nc3ccccc3c2=O)c1C`, with -1.87%; and `COc1ccc(CCNC(=O)c2[nH]c(C)c(C(C)=O)c2C)cc1OC`, with 0.0336%.
